# From PMC4336329 (PLoS ONE, 2015)
# Screen size: about 310,000 compounds; about 2,200 (0.71%) showed an effect of 50% or more. Effects have a minus sign here. The list shows a part of the results.
# Target: human ether-à-go-go-related gene (hERG) potassium channel (human, UniProt Q12809)
# Assay: primary screen, population patch clamp on CHO cells stably expressing hERG
# Sequence of human ether-à-go-go-related gene (hERG) potassium channel (Q12809 whole entry, looked up): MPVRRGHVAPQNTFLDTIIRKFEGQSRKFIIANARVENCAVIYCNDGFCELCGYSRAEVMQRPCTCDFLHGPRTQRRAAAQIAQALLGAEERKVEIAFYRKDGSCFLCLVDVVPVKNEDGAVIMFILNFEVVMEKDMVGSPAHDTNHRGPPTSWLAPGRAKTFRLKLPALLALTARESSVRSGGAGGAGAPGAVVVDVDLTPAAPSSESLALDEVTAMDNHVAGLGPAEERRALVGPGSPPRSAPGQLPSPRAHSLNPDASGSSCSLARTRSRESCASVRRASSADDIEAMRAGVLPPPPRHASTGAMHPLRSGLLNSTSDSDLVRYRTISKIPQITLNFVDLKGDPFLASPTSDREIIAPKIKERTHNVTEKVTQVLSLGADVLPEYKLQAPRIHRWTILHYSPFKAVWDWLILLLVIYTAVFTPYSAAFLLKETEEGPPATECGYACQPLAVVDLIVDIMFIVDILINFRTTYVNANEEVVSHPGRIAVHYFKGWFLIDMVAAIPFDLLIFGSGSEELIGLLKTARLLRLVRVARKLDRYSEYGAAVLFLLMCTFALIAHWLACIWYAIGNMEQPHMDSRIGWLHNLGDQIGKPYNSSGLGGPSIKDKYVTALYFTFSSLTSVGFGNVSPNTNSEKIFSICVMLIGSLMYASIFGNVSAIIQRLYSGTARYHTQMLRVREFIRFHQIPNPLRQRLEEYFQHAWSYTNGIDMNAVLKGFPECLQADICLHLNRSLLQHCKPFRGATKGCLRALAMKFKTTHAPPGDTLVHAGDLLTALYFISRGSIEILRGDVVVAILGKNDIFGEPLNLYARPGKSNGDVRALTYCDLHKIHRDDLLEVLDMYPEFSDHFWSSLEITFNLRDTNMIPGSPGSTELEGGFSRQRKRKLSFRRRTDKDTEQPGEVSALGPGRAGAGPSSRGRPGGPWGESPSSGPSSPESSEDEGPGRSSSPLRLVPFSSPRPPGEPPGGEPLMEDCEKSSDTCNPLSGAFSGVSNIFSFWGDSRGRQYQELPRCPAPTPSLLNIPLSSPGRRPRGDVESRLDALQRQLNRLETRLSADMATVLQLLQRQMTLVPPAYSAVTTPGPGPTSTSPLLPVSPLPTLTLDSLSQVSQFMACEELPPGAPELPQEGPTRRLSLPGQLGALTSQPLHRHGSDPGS
row,Compound,"hERG current change (%, negative = inhibition) at 1uM [%]"
1,Cc1nn(Cc2ccccc2)c(C)c1C(=O)NCc1ccccc1F,11.3
2,Cc1nnc(SCC(=O)NCc2ccc(Cl)cc2)[nH]c1=O,1.28
3,COc1cccc(NC(=O)c2ccc(N3C(=O)C4CCC(C)CC4C3=O)cc2)c1 (centres unmarked),-5.87
4,CC(C)CC(NC(=O)/C(=C/c1ccco1)NC(=O)c1ccc(Br)o1)C(=O)O (centres unmarked),17.3
5,O=C(N=NC(=O)c1ccco1)c1ccc2c(O)n(N3C(=O)c4ccccc4C3=O)c(O)c2c1,-0.215
6,CC(=O)CC(c1ccc([N+](=O)[O-])cc1)c1c(O)c2ccccc2oc1=O (centres unmarked),13.9
7,CC1CC(C)CN(CCCNC(=O)CN2C(=O)c3cccnc3Oc3ccc(Cl)cc32)C1 (centres unmarked),-9.7
8,CC1Oc2ccccc2N(CC(=O)N2CCCC2)C1=O (centres unmarked),10.1
9,CCOC(=O)C1CCN(C(=O)/C(C)=C\c2ccccc2)CC1,13.9
10,CNc1cc(N2CCCCCC2)ccc1[N+](=O)[O-],4.89
11,N#CC1=C(N)Oc2cc(O)ccc2C1c1ccccc1 (centres unmarked),17.3
12,O=C(C1CC1)N1CCC(Oc2cccc(C(=O)N3CCCCC3CCO)c2)CC1 (centres unmarked),15.6
13,CCCN1CCC(NC(=O)c2cccc(Oc3ccccc3)c2)CC1,-26.7
14,O=c1[nH]c(C2CCN(S(=O)(=O)c3ccc(F)cc3)CC2)nc2c1nnn2Cc1ccc2c(c1)OCCO2,13
15,O=C(COC(=O)c1ccco1)Nc1nnc(-c2ccccc2)o1,16.1
16,O=C(CN1C(=O)/C(=C/c2ccco2)SC1=S)Nc1ccc(C(=O)O)c(O)c1,9.57
17,CC1CC(C)CN(CCCNC(=O)c2ccc3nc(N4CCOCC4)sc3c2)C1 (centres unmarked),-1.81
18,Cc1ccc(N(Cc2cc3cc(C)ccc3[nH]c2=O)C(=O)c2cccs2)cc1,13.5
19,Cl.NCCCCCc1nnc(SCC(N)=O)o1,2.96

row,Compound,"hERG current change (%, negative = inhibition) at 1uM [%]"
1,CCOC(=O)C1=NNC(C(=O)c2ccc(OC)cc2)C1c1ccccc1 (centres unmarked),5.18
2,CCC1=NN2C(=N)/C(=C/c3ccc(OS(=O)(=O)c4ccccc4)cc3)C(=O)N=C2S1,15.9
3,O=C(CSc1ncnc2sccc12)N1CCN(C(=O)c2cccs2)CC1,-8.79
4,Cc1cc(N2CCC(C)CC2)nc2cccc(O)c12,4.11
5,CCCCC(=O)NC(=S)Nc1cccc(NC(=O)c2ccccc2)c1,11.3
6,O=C(N/N=C/c1ccoc1)c1cccc([N+](=O)[O-])c1,14
7,COc1ccccc1NS(=O)(=O)c1cccc(NC(=O)Cc2cccs2)c1,7.33
8,COc1ccc(CCNC(=O)COC(=O)C2CCCCC2)cc1,11.6
9,O=C(Nc1nccs1)c1ccc(-c2ccc([N+](=O)[O-])cc2)o1,16
10,COc1ccc(C)cc1NC(=O)C1CC(=O)OC12CCCCC2 (centres unmarked),11.3
11,Cc1ccc2c(c1)nnn2C1CCN(CC(=O)NCc2ccccc2F)CC1,-20.4
12,CC(C)c1ccccc1NC(=S)NCc1nc2ccccc2[nH]1,14.3
13,COc1ccc(NC(=O)C/C(C)=N/NC(=O)c2ccncc2)c([N+](=O)[O-])c1,-4.09
14,COCCNC(=S)N(CCc1c(C)[nH]c2ccc(F)cc12)Cc1ccc(C)cc1,13.7
15,CCCC[C@@H]1CNC(=S)N1CCC12CC3CC(CC(C3)C1)C2,19.2
16,COc1cc(/C=N/NC(=O)c2cc(-c3ccccc3)sc2N)cc(OC)c1OC,5.12
17,COc1ccc(-n2cccc2/C=C2\C(=N)N3N=C(C(C)C)SC3=NC2=O)cc1,11.5
18,O=c1[nH]c(=O)n(-c2ccccc2)c2c1C(C(F)(F)F)(C(F)(F)F)N=C(C1CCCCC1)N2,8.95
19,O=C(Cc1nnc(NC(=O)c2ccccc2)s1)N/N=C\c1ccc(O)c(O)c1,18.2

row,Compound,"hERG current change (%, negative = inhibition) at 1uM [%]"
1,O=C(CNS(=O)(=O)c1ccc2ccccc2c1)NCCc1ccccn1,12.7
2,O=C(O)CCNC(=S)Nc1cccc(F)c1,15.5
3,O=C(CCCN1C(=O)/C(=C/c2ccc(F)cc2)SC1=S)NCCCn1ccnc1,-20.3
4,O=C1CC(N(O)c2ccccc2)C(=O)N1c1cc(Cl)cc(Cl)c1 (centres unmarked),13
5,CCOC(=O)c1[nH]c2cc(OC)c(OC)cc2c1NC(=O)CCN1CCSCC1,6.99
6,CN(C)c1ccc(CNc2ncnc3sccc23)cc1,2.59
7,CCCCn1c(-c2cccnc2)n[nH]c1=S,12.8
8,CSc1nc(NCc2ccccc2)c2c3c(sc2n1)CN(C)CC3,-64.2
9,CCc1ccc(NC(=O)Nc2cccs2)cc1,21.2
10,CN(C)c1nc(-c2ccc([N+](=O)[O-])cc2)cs1,7.93
11,COc1ccc(C(=O)N(c2ccccn2)C2CCCCC2)c(OC)c1,10.6
12,CC(C)(C)Nc1nc(Cl)nc(NC(C)(C)C)n1,5.68
13,CCOC(=O)NC(=O)c1cn(Nc2ncc(Cl)cc2C(F)(F)F)c(=O)[nH]c1=O,11.1
14,COc1ccc(-n2c(Cc3cc(=O)[nH]c(=O)[nH]3)nnc2SCc2ccccc2)cc1,5.7
15,CCN(CC(=O)Nc1ccc(NC(C)=O)cc1)C(=O)c1ccccc1Sc1ccccc1C#N,15
16,CCCN(CCC)CCNC(=O)CCC(=O)Nc1ccc2nc(N3CCOCC3)cc(C)c2c1,8.82
17,COc1ccccc1NC(=O)CSc1nnc(C)n1Cc1ccccc1,3.31
18,O=S(=O)(Nc1nc2ccccc2nc1NCc1ccco1)c1cccs1,8.81
